Laboratory results reported in the supplement of paper PMC11417369.
The other results are listed elsewhere or left out.

The sequences below were run on PfAP2-HC AP2 domain (GST-tagged) (assay: gcPBM binding intensity (ln(normalized median fluorescence intensity)); higher = stronger DNA binding).
Outline: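 For binding intensity, the highest Masliner-normalised natural-log median intensity across replicate spots of either probe orientation was taken. Protein bound to the array was stained with Alexa488 anti-GST antibody and scanned at 488 nm. The protein, GST-tagged P. falciparum DNA-binding domains from E. coli at about 25 μg on average, had been applied for 1 h to an Agilent 4 × 180k array of primer-extended double-stranded 36-bp intergenic genomic probes and negative controls.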

**Q.** With “CCCACAAAGGAATATACACACATATATATATATATA [CACACA_site4091]” as the sequence, how does the “gcPBM binding intensity (ln)” value read?
**A.** 9.68

**Q.** How did the “gcPBM binding intensity (ln)” value turn out when “TAAATATTTTTTTAGACACACATATATCTATGATAT [CACACA_site1107]” was run?
**A.** 9.66

**Q.** How did the “gcPBM binding intensity (ln)” value turn out when “ATGCTATATTAAAAACGTACAAACTGTTTAGAAAAA [XGTACX_site8943]” was run?
**A.** 9.59

**Q.** How did the “gcPBM binding intensity (ln)” value turn out when “TTTTTTCTTAAAGACATATATTTATTTGGTAAAACA [XGTACX_negctrl_site243]” was run?
**A.** 9.39

**Q.** Which “gcPBM binding intensity (ln)” value does the source give for “GGATATAACAGACACACACACACATATAAATATATT [CACACA_site7866]” here?
**A.** 10.6

**Q.** For “TATTTTCTTTTTCTTGTACACACATAATATGGATGA [CACACA_site8168]”, which “gcPBM binding intensity (ln)” value is on record?
**A.** 9.73

**Q.** How did the “gcPBM binding intensity (ln)” value turn out when “TATTTACATTTATGTGCACACATTCCATTTGAAAGT [CACACA_site1954]” was run?
**A.** 9.97

**Q.** How did the “gcPBM binding intensity (ln)” value turn out when “AATAGAAAAAAAAAATGTACACATATAAAAGCATAT [XGTACX_site6306]” was run?
**A.** 10.2

**Q.** For “CGGACATACATAGGAACATGCAAAATTTTTTATTTT [TGCATGCA_site575]”, which “gcPBM binding intensity (ln)” value is on record?
**A.** 9.48

**Q.** For “TAAAAGAATAAAAGTAGTACTTTTTTTTATATTAGA [XGTACX_site368]”, which “gcPBM binding intensity (ln)” value is on record?
**A.** 9.46

**Q.** “AAAAAGTGACTCCTTACACACTTTACATAATTTAGT [CACACA_site4606]” was tested. Which “gcPBM binding intensity (ln)” value did it give?
**A.** 9.81

**Q.** With “TCTTTTTTTTTTTATTGTACAAGAAAAGGAAAAAAT [XGTACX_site3717]” as the sequence, how does the “gcPBM binding intensity (ln)” value read?
**A.** 9.18

**Q.** For “ATATTTTTATATTAGTGTACTTATTATAATGTATAG [XGTACX_site8185]”, which “gcPBM binding intensity (ln)” value is on record?
**A.** 9.62

**Q.** “ATATAATATATATGGTGTACATTTTTTAGTGCTATT [XGTACX_site1662]” was tested. Which “gcPBM binding intensity (ln)” value did it give?
**A.** 9.68

**Q.** With “AGTACATTTTTTTTAATAGGAAAAAAAATATTTATT [TGCATGCA_negctrl_site575]” as the sequence, how does the “gcPBM binding intensity (ln)” value read?
**A.** 9.4

**Q.** For “AAGTATTATTTTTATGCATGTGAAGTGCAAAATAAA [TGCATGCA_site198]”, which “gcPBM binding intensity (ln)” value is on record?
**A.** 9.54

**Q.** For “ATAATATGTAATATTACACACAATTCATCATTTTTT [CACACA_site3159]”, which “gcPBM binding intensity (ln)” value is on record?
**A.** 9.94

**Q.** How did the “gcPBM binding intensity (ln)” value turn out when “ATATACACCGTTGAATGTACATAAATAATATTAATA [XGTACX_site2893]” was run?
**A.** 9.73

**Q.** How did the “gcPBM binding intensity (ln)” value turn out when “ACTTTATATTTTGAACGTACAAAAAAAAAATTATGT [XGTACX_site5588]” was run?
**A.** 9.41

**Q.** Which “gcPBM binding intensity (ln)” value does the source give for “AACCATTAATTCTCTACACACTTTTATTTTATTTAG [CACACA_site1769]” here?
**A.** 9.89

**Q.** “GCACATATATACATACATACATACATACATATGTAT [TGCATGCA_negctrl_site95]” was tested. Which “gcPBM binding intensity (ln)” value did it give?
**A.** 10.2

**Q.** How did the “gcPBM binding intensity (ln)” value turn out when “ATAAAGATTTTCCAAGCATGCCACATAGTGAGATAC [TGCATGCA_site594]” was run?
**A.** 9.77

**Q.** “ATCATAAAAGTATACACACATACATACATATGTACA [CACACA_site2641]” was tested. Which “gcPBM binding intensity (ln)” value did it give?
**A.** 9.94

**Q.** With “TTATATATTTTTACCATACACACATATAATAAATAT [CACACA_site3721]” as the sequence, how does the “gcPBM binding intensity (ln)” value read?
**A.** 9.81
